65 cell lines from the supplement of paper PMC4967469 can be followed below.

By IC50 is meant the dose at which the fit gives 50% viability; a limit (>, <) means that the fit lies beyond the doses tested. AUC, from the same fit, is the share of area under the viability curve across the 256-fold dose range: 1 means no effect, lower means more sensitive. A top dose marked as inferred comes from the curve model; the source does not state it.

Compound in the assay: CCn1cc(-c2ccnc3[nH]c(-c4cccc(CN(C)C)c4)cc23)c(-c2ccc(NC(=O)N(C)C)cc2)n1 [GSK1070916]
Kind of assay: Viability of human cancer cell lines after 72 h of drug (GDSC screen). The settings on record: top dose inferred. Here is the method: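 Human cancer cell lines in 384-well plates, medium with 10% serum, drug for 72 h over a 256-fold dose range (nine 2-fold or five 4-fold steps up to the top dose). Adherent lines were fixed and stained with the nucleic acid dye Syto60, suspension lines read with resazurin; signal relative to control wells, capped at 0 and 100%. One two-parameter sigmoid per drug and line, fitted in a mixed model over all curves with the slope shared within a line.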
“BT-20 (breast, adherent, top dose 2.56 µM)”: the AUC was determined as 0.861 and the IC50 is greater than 2.56 µM.
As to “BT-474 (breast, adherent, top dose 2.56 µM)”, the AUC turned out to be 0.971 and the IC50 is greater than 2.56 µM.
For the cell line “BT-483 (breast, adherent, top dose 2.56 µM)”, the AUC stood at 0.975 and the IC50 is greater than 2.56 µM.
In the same order, the values of “BV-173 (chronic myeloid leukaemia, suspension, top dose 2.56 µM)” are 0.066 and less than 0.01 µM.
In the case of “Becker (glioma, adherent, top dose 2.56 µM)”, the AUC turned out to be 0.974 and the IC50 is greater than 2.56 µM.
For the cell line “BxPC-3 (pancreas, adherent, top dose 2.56 µM)”, the AUC is 0.981 and the IC50 was greater than 2.56 µM.
In the same order, the values of “C2BBe1 (large intestine, adherent, top dose 2.56 µM)” are 0.983 and greater than 2.56 µM.
The corresponding values for C3A (liver, adherent, top dose 2.56 µM) are 0.988 and greater than 2.56 µM.
Consider “C32 (melanoma, adherent, top dose 2.56 µM)”, for which the AUC came to 0.987 and the 50% inhibitory concentration (IC50) is greater than 2.56 µM.
As to “C-4-I (cervix, adherent, top dose 2.56 µM)”, the AUC was determined as 0.968 and the half-maximal inhibitory concentration (IC50) is greater than 2.56 µM.
On to “C-33-A (cervix, adherent, top dose 2.56 µM)”, for which the AUC was determined as 0.949 and the IC50 is greater than 2.56 µM.
The corresponding values for “CA46 (Burkitt lymphoma, suspension, top dose 2.56 µM)” are 0.847 and 2.11 µM.
The corresponding values for “CADO-ES1 (Ewing sarcoma, suspension, top dose 2.56 µM)” are 0.727 and 0.715 µM.
The corresponding values for “CAKI-1 (kidney, adherent, top dose 2.56 µM)” are 0.911 and greater than 2.56 µM.
On to “CAL-12T (non-small cell lung carcinoma, adherent, top dose 2.56 µM)”, for which the AUC was found to be 0.849 and the 50% inhibitory concentration (IC50) is 2.27 µM.
In the same order, the values of “CAL-27 (head and neck, adherent, top dose 2.56 µM)” are 0.812 and 1.4 µM.
On to “CAL-29 (bladder, adherent, top dose 2.56 µM)”, for which the AUC is 0.982 and the half-inhibitory concentration (IC50) is greater than 2.56 µM.
In the same order, the values of “CAL-39 (cervix, adherent, top dose 2.56 µM)” are 0.973 and greater than 2.56 µM.
With “CAL-51 (breast, adherent, top dose 2.56 µM)”, the AUC is 0.981 and the half-maximal inhibitory concentration (IC50) is greater than 2.56 µM.
For “CAL-54 (kidney, adherent, top dose 2.56 µM)”, the AUC was found to be 0.961 and the half-inhibitory concentration (IC50) is greater than 2.56 µM.
Turning to “CAL-62 (thyroid, adherent, top dose 2.56 µM)”, the AUC was found to be 0.983 and the IC50 was greater than 2.56 µM.
The corresponding values for “CAL-72 (osteosarcoma, adherent, top dose 2.56 µM)” are 0.984 and greater than 2.56 µM.
The corresponding values for “CAL-78 (chondrosarcoma, adherent, top dose 2.56 µM)” are 0.986 and greater than 2.56 µM.
In the same order, the values of “CAL-85-1 (breast, adherent, top dose 2.56 µM)” are 0.893 and greater than 2.56 µM.
As to “CAL-120 (breast, adherent, top dose 2.56 µM)”, the AUC turned out to be 0.901 and the IC50 is greater than 2.56 µM.
“CAL-148 (breast, suspension, top dose 2.56 µM)”: the AUC was found to be 0.984 and the half-inhibitory concentration (IC50) was greater than 2.56 µM.
As for “CAMA-1 (breast, adherent, top dose 2.56 µM)”, the AUC was 0.936 and the 50% inhibitory concentration (IC50) was greater than 2.56 µM.
For “CAPAN-1 (pancreas, adherent, top dose 2.56 µM)”, the AUC was 0.971 and the IC50 is greater than 2.56 µM.
“CAS-1 (glioma, adherent, top dose 2.56 µM)”: the AUC stood at 0.943 and the half-maximal inhibitory concentration (IC50) was greater than 2.56 µM.
For “CCF-STTG1 (glioma, adherent, top dose 2.56 µM)”, the AUC turned out to be 0.963 and the IC50 was greater than 2.56 µM.
The corresponding values for “CCK-81 (large intestine, adherent, top dose 2.56 µM)” are 0.947 and greater than 2.56 µM.
Consider “CCRF-CEM (lymphoblastic leukaemia, suspension, top dose 2.56 µM)”, for which the AUC was determined as 0.064 and the half-maximal inhibitory concentration (IC50) is less than 0.01 µM.
In the case of “CESS (acute myeloid leukaemia, suspension, top dose 2.56 µM)”, the AUC turned out to be 0.178 and the IC50 was 0.021 µM.
Regarding “CFPAC-1 (pancreas, adherent, top dose 2.56 µM)”, the AUC turned out to be 0.956 and the half-maximal inhibitory concentration (IC50) is greater than 2.56 µM.
Consider “CGTH-W-1 (thyroid, adherent, top dose 2.56 µM)”, for which the AUC came to 0.971 and the half-inhibitory concentration (IC50) is greater than 2.56 µM.
For the cell line “CHL-1 (melanoma, adherent, top dose 2.56 µM)”, the AUC amounted to 0.971 and the IC50 is greater than 2.56 µM.
Take “CHP-134 (neuroblastoma, suspension, top dose 2.56 µM)”: the AUC was 0.272 and the concentration for half-maximal inhibition (IC50) is 0.0297 µM.
The corresponding values for “CHP-212 (neuroblastoma, adherent, top dose 2.56 µM)” are 0.876 and 2.2 µM.
In the same order, the values of “CHSA0011 (chondrosarcoma, adherent, top dose 2.56 µM)” are 0.946 and greater than 2.56 µM.
Take “CHSA0108 (chondrosarcoma, adherent, top dose 2.56 µM)”: the AUC is 0.965 and the IC50 is greater than 2.56 µM.
In the same order, the values of “CHSA8926 (chondrosarcoma, adherent, top dose 2.56 µM)” are 0.933 and greater than 2.56 µM.
The corresponding values for “CL-11 (large intestine, adherent, top dose 2.56 µM)” are 0.97 and greater than 2.56 µM.
In the same order, the values of “CMK (acute myeloid leukaemia, suspension, top dose 2.56 µM)” are 0.656 and 0.402 µM.
Regarding “COLO-320-HSR (large intestine, suspension, top dose 2.56 µM)”, the AUC amounted to 0.928 and the IC50 is greater than 2.56 µM.
For the cell line “COLO-668 (small cell lung carcinoma, adherent, top dose 2.56 µM)”, the AUC is 0.84 and the concentration for half-maximal inhibition (IC50) amounted to 1.76 µM.
For “COLO-678 (large intestine, semi-adherent, top dose 2.56 µM)”, the AUC stood at 0.974 and the IC50 was greater than 2.56 µM.
For the cell line “COLO-679 (melanoma, adherent, top dose 2.56 µM)”, the AUC was determined as 0.894 and the IC50 was greater than 2.56 µM.
With “COLO-680N (oesophagus, adherent, top dose 2.56 µM)”, the AUC turned out to be 0.974 and the IC50 was greater than 2.56 µM.
With “COLO-684 (endometrium, suspension, top dose 2.56 µM)”, the AUC stood at 0.879 and the half-inhibitory concentration (IC50) is greater than 2.56 µM.
The corresponding values for “COLO-783 (melanoma, adherent, top dose 2.56 µM)” are 0.988 and greater than 2.56 µM.
In the case of “COLO-792 (melanoma, adherent, top dose 2.56 µM)”, the AUC was 0.958 and the IC50 was greater than 2.56 µM.
For “COLO-800 (melanoma, adherent, top dose 2.56 µM)”, the AUC is 0.878 and the IC50 is 2.46 µM.
The corresponding values for “COLO-824 (breast, adherent, top dose 2.56 µM)” are 0.913 and greater than 2.56 µM.
The corresponding values for “COLO-829 (melanoma, adherent, top dose 2.56 µM)” are 0.959 and greater than 2.56 µM.
“COR-L23 (large cell lung carcinoma, adherent, top dose 2.56 µM)”: the AUC is 0.882 and the IC50 was greater than 2.56 µM.
In the same order, the values of “COR-L88 (small cell lung carcinoma, adherent, top dose 2.56 µM)” are 0.932 and greater than 2.56 µM.
In the same order, the values of “COR-L95 (small cell lung carcinoma, adherent, top dose 2.56 µM)” are 0.946 and greater than 2.56 µM.
The corresponding values for “COR-L105 (lung adenocarcinoma, adherent, top dose 2.56 µM)” are 0.896 and greater than 2.56 µM.
For the cell line “COR-L279 (small cell lung carcinoma, suspension, top dose 2.56 µM)”, the AUC worked out at 0.855 and the half-maximal inhibitory concentration (IC50) came to 1.71 µM.
As for “COR-L303 (small cell lung carcinoma, suspension, top dose 2.56 µM)”, the AUC was found to be 0.851 and the 50% inhibitory concentration (IC50) worked out at 1.86 µM.
Turning to “COR-L321 (lung, suspension, top dose 2.56 µM)”, the AUC was 0.437 and the IC50 stood at 0.108 µM.
Consider “CP50-MEL-B (melanoma, adherent, top dose 2.56 µM)”, for which the AUC turned out to be 0.987 and the concentration for half-maximal inhibition (IC50) was greater than 2.56 µM.
Turning to “CP66-MEL (melanoma, adherent, top dose 2.56 µM)”, the AUC was 0.984 and the half-inhibitory concentration (IC50) is greater than 2.56 µM.
For “CPC-N (small cell lung carcinoma, suspension, top dose 2.56 µM)”, the AUC came to 0.816 and the IC50 amounted to 1.59 µM.
Consider CS1 (bone, adherent, top dose 2.56 µM), for which the AUC worked out at 0.888 and the IC50 is greater than 2.56 µM.

As a reminder, the IC50 is the midpoint of a concentration-inhibition curve.
